Measurements taken from PubChem BioAssay AID485297 (National Center for Advancing Translational Sciences (NCATS), 2010).
Out of some 320,000 compounds screened, about 9,100 (2.8%) were called active. This list was built around the results that the source calls inconclusive (neither active nor inactive); the mix of calls is not that of the screen. Calls come from the whole dose curve; as a rule, active = well fitted activation curve with a large enough effect; inconclusive = small, poorly fitted or top-dose-only effect; inactive = no such curve, though single readings can be large or run the other way. Potencies of inconclusive entries are left out as doubtful fits.

Experiment: qHTS Assay for Rab9 Promoter Activators; note: nearly all actives have a fitted effect of over 60% in size; for activation, negative = inhibition: % of control where 0% means no effect
Conditions: Huh7 Rab9 promoter-luciferase reporter, luminescence, 24 h; series mostly up to 9.22 µM
Outline: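 Quantitative HTS format; Huh7 Rab9-luciferase reporter cells (1500/well) receive compound 2 h post-plating, incubate 24 h at 37 °C, then get luciferase reagent for 10 min before luminescence reading.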
Potency is the fitted concentration of half-maximal effect; tags give direction and shape of the fitted curve.

Row | SMILES | Potency | activation, negative = inhibition
1 | C=CCOc1ccccc1CN1CCC(Oc2cc(C(=O)NC3CC3)ccc2OC)CC1 | inactive | 
2 | O=C(NCc1ccco1)c1sc2cccc(F)c2c1Cl | inconclusive [activator, single point] | 
3 | CC1CN(C(=O)c2cc([N+](=O)[O-])cc([N+](=O)[O-])c2)CC(C)O1 (stereo not given) | active: 3.16 µM | 
4 | O=C(Nc1ccc(Cl)cc1)c1sccc1-n1cccc1 | inconclusive [activator, partial curve] | 
5 | COc1ccc(CCC(=O)N2c3ccccc3CC2C)cc1 (stereo not given) | inactive | 
6 | Cc1cc(=O)oc2cc(NC(=O)c3cc(F)ccc3F)ccc12 | active: 2.51 µM | 
7 | S=C(Nc1ccc(Cl)cc1Cl)N1CCCC1 | inconclusive [activator, partial curve] | 
8 | O=C(Nc1ccccc1N1CCN(C(=O)c2ccccc2)CC1)c1ccc(Br)o1 |  | inactive: 2.3% [at 1.84 µM]
9 | O=c1oc2ccccc2cc1-c1nc2ccccc2o1 | active: 2.82 µM | 
10 | O=C(NC1CCCCC1)C(c1ccc(F)cc1)N(Cc1ccco1)C(=O)c1ccccn1 (stereo not given) | inconclusive [activator, single point] | 
11 | O=C(COc1ccccc1)Nc1ccc2c(c1)nc1n2CCSC1 | active: 3.98 µM | 
12 | COC1C/C(=N\O)C2OC(c3ccccc3)OCC2O1 (stereo not given) | inactive | 
13 | CC(C)(CO)NC(=O)c1ccc2c(c1)C(=O)c1ccccc1-2 | inconclusive [activator, partial curve] | 
14 | CC(C(=O)N1CCCCC1)n1sc2ccccc2c1=O (stereo not given) | inconclusive [activator, partial curve] | 
15 | O=C(Nc1ccc2nc(-c3ccccc3)[nH]c2c1)c1ccco1 | inconclusive [activator, single point] | 
16 | Cc1nc2ncccn2c1-c1csc(NCc2ccco2)n1 | inactive | 
17 | CCn1c(=N)n(CC(=O)c2ccc(Cl)c(Cl)c2)c2ccccc21 | active: 3.98 µM | 
18 | CC(C)c1ccc(OCCCCCN2CCOCC2)cc1 | inconclusive [activator, partial curve] | 
19 | Cc1ccsc1C(=O)OCC(=O)c1ccc[nH]1 | active: 2.82 µM | 
20 | O=C1CC(c2cc([N+](=O)[O-])ccc2Cl)c2c(ccc3ccccc23)N1 (stereo not given) | inactive | 
21 | COc1ccc(C(=O)Nc2ccc3ccccc3n2)cc1OC | active: 2.82 µM | 
22 | Fc1ccccc1CSc1nnc(-c2ccccc2)o1 | active: 3.16 µM | 
23 | COc1ccc(NS(=O)(=O)c2cccc(C(=O)N/N=C/c3ccccn3)c2)cc1 | inconclusive [activator, single point] | 
24 | C=CCn1c(C)cc(C(=O)CN2NS(=O)(=O)c3ccccc3C2=O)c1C | inconclusive [activator, single point] | 
25 | Cn1cc(Br)c(C(=O)N/N=C/c2cc3c(cc2Cl)OCO3)n1 | inconclusive [activator, partial curve] | 
26 | C=CCOC(=O)c1sc(NC(=O)c2ccco2)nc1C | inconclusive [activator, partial curve] | 
27 | CC(C)(C)N1C(=O)c2ccc(C(=O)Nc3ccc(O)cc3)cc2C1=O | inconclusive [activator, partial curve] | 

Row | SMILES | Potency | activation, negative = inhibition
28 | O=C(COc1ccc2c3c(c(=O)oc2c1)CCC3)N1CCCCC1 | inconclusive [activator, partial curve] | 
29 | O=C(COC(=O)c1ccccc1NCc1ccco1)Nc1ccc2c(c1)OCO2 | inconclusive [activator, single point] | 
30 | N#CCSc1nc(-c2ccccc2)cs1 | inconclusive [activator, single point] | 
31 | CCOC(=O)C1C(=O)C=C(Nc2ccccc2F)CC1c1ccccc1 (stereo not given) | inconclusive [activator, single point] | 
32 | C=C(C)CSc1nc2ccccc2[nH]1 | inactive | 
33 | COc1ccccc1C(O)Cc1nc2ccccc2n1C (stereo not given) | inconclusive [activator, single point] | 
34 | CCCNc1nc(C)c(C(C)=O)cc1C#N | inactive | 
35 | C=CCn1c(O)c(N=NC(=O)c2ccc3c(c2)OCO3)c2ccccc21 | inconclusive [activator, partial curve] | 
36 | Cc1ncc(CO)c(/C=N/NC(=O)c2cc(O)c(O)c(O)c2)c1O | inactive | 
37 | Oc1ccc(Br)cc1-c1nc2cnccn2c1NC1CCCC1 | inactive | 
38 | CCOC(=O)c1sc(NC(=O)c2cccnc2)c(C#N)c1C | inactive | 
39 | CN(C)/C=C1\C(=O)N(c2ccc(Cl)cc2)CS1(=O)=O | inconclusive [activator, partial curve] | 
40 | O=c1ncn(-c2ccc(F)cc2)c2ncccc12 | inactive | 
41 | Cc1cc(C)c(C(=O)CN2C(=O)C(=O)N(C3CCCC3)C2=O)cc1C | inactive | 
42 | COc1cc(OC)c(C(=O)Nc2cccc(C(C)=O)c2)cc1OC | inconclusive [activator, single point] | 
43 | Cn1cc(Br)c(C(=O)Nc2sc3c(c2C(N)=O)CCCC3)n1 | inconclusive [activator, partial curve] | 
44 | O=C(Cc1noc2ccccc12)Nc1ccc(Cl)cc1 | inconclusive [activator, single point] | 
45 | CCOC(=O)c1cn(Cc2ccc(C)cc2)nn1 | inactive | 
46 | CCCn1c(N)c(C(=O)CN(C)CC(=O)Nc2ccccc2C(F)(F)F)c(=O)[nH]c1=O | inactive | 
47 | COCCn1c(C)cc(C(=O)COC(=O)c2n[nH]c3ccccc23)c1C | active: 0.224 µM | 
48 | CC1(C)CC(=O)C=C(c2ccc(-c3ccccc3)cc2)C1 | inconclusive [activator, single point] | 
49 | O=[N+]([O-])c1ccc2nc(SCc3cn4ccccc4n3)[nH]c2c1 | inactive | 
50 | CCNc1nc(N)nc(Oc2ccc(C(=O)OC)cc2)n1 | active: 3.16 µM | 
51 | O=C(CSc1ccccc1Cl)c1ccco1 | inconclusive [activator, partial curve] | 
52 | CCN(c1ccccc1)c1ncnc2c1cnn2-c1ccccc1 | inconclusive [activator, single point] | 
53 | CCc1nc2ccc(C(=O)NCCc3ccco3)cc2nc1CC | inconclusive [activator, partial curve] | 
54 | O=C(Nc1ccc(C(=O)N2CCCC2)cc1)c1ccc2c(c1)OCO2 | inconclusive [activator, partial curve] | 

Row | SMILES | Potency | activation, negative = inhibition
55 | Cc1nn(-c2ccccc2)c(Cl)c1/C=N/Nc1nc2ccccc2n1C | inconclusive [activator, partial curve] | 
56 | COc1ccc(/C=C/C(=O)c2cc3c(cc2N)OCO3)cc1 | inconclusive [activator, single point] | 
57 | O=C(COc1ccc(F)cc1Cl)NC1CCCCCC1 | active: 2.24 µM | 
58 | COC(=O)C(Cc1c[nH]c2ccccc12)NC(=O)c1cccs1 (stereo not given) | inactive | 
59 | CC(C)(C)OC(=O)NCCOC(=O)c1[nH]cnc1C(=O)NCc1ccccc1 | inactive | 
60 | COc1ccc(OCC(=O)Nc2nc3ccccc3[nH]2)cc1 | inconclusive [activator, partial curve] | 
61 | O=C(c1ccccc1)N1CCC(c2nc3c(nnn3Cc3ccco3)c(=O)[nH]2)CC1 | inconclusive [activator, partial curve] | 
62 | CC(C)(C)C(=O)Nc1nc2c(s1)CN(Cc1ccccc1)CC2 | active: 3.16 µM | 
63 | CCN(CC(=O)Nc1cccc(C(C)=O)c1)S(=O)(=O)c1ccccc1 | inactive | 
64 | CCOC(=O)N1CCN(S(=O)(=O)N2CCCC(C(=O)NCCCN3CCCCC3)C2)CC1 (stereo not given) | inactive | 
65 | CCOCCc1nnc(NC(=O)C2CC(=O)N(c3ccc(OCC)cc3)C2)s1 (stereo not given) | inactive | 
66 | c1ccc(SCc2cc(-c3ccccc3)no2)cc1 | active: 2.51 µM | 
67 | Cc1ccn2c(=O)nc(SCC(=O)c3ccccc3)nc2c1 | inconclusive [activator, single point] | 
68 | Cc1ccc(OCC(=O)c2cc(C)n(C)c2C)c([N+](=O)[O-])n1 | inconclusive [activator, partial curve] | 
69 | CCOC(=O)c1c(C)[nH]c(C)c1C(=O)CSc1nnc(-c2ccco2)n1Cc1ccccc1 | inactive | 
70 | c1ccc(N2CCN(c3nc4cc5c(cc4s3)OCCO5)CC2)cc1 | inconclusive [activator, full curve] | 
71 | CCc1ccc(NS(=O)(=O)c2cc(OC)ccc2OC)cc1 | inactive | 
72 | Cc1ccc2nc(NC(=O)c3ccc4c(c3)OCO4)sc2c1 | active: 1.12 µM | 
73 | Cc1ccc(C(=O)Nc2cnc3sc(C)nn3c2=O)cc1 | inconclusive [activator, single point] | 
74 | COc1cc(Cl)ccc1OCc1cc(C(=O)NC(C)Cc2cccnc2)no1 (stereo not given) | inconclusive [activator, partial curve] | 
75 | CCCOc1ccc(N2C(=O)CC(N(CCOC34CC5CC(CC(C5)C3)C4)C(C)=O)C2=O)cc1 (stereo not given) | inactive | 
76 | CCOc1ccc2nc(N3C(=O)/C(=C/c4ccccc4)NC3=S)sc2c1 | inconclusive [activator, partial curve] | 
77 | CCOc1ccc(C(=O)Nc2cc(C)on2)cc1OCC | inactive | 
78 | COc1ccc(C(=O)Nc2ccc(OC)c(OC)c2)cc1 | inconclusive [activator, partial curve] | 
79 | S=C(N/N=C/c1ccc2ncccc2c1)Nc1ccccc1 | inconclusive [activator, partial curve] | 
80 | COc1ccc(NC(=O)c2cncn2-c2ccccc2)cc1 | inconclusive [activator, single point] | 
